± gives the standard deviation of the averaged measurements. Laboratory Escherichia coli strains with one amino-acid change in an essential protein, pooled on minimal glucose agar with carbenicillin or gentamicin at twice the control MIC (plus kanamycin and chloramphenicol for the plasmids), 48 h. Fold change of barcode share against drug-free plates; higher = less susceptible. Active = above 20 in both replicates (the paper's putatively resistant). '<' = one read or none on drug, '>' = one read or none on a drug-free plate. Shares are relative, so most strains fall below 1 when a few take over. Listed are strains with at least 15 reads on both drug-free plates, and hits; most hits rest on fewer reference reads. Replicate rank correlation about 0.5. Edits are read from barcodes.
Target: Escherichia coli (laboratory strain)
Assay: barcode share on antibiotic plates over drug-free plates; higher = less susceptible
Protocol: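 A pool of E. coli strains, each edited to carry one amino-acid change in an essential protein, was grown for 48 h on minimal glucose agar with or without antibiotic; strain barcodes were sequenced; mean of two replicates.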

[1] = antibiotic: carbenicillin, 2× MIC (3.1 µg/mL)
[2] = antibiotic: gentamicin, 2× MIC (MIC 0.45 µg/mL)

B1: pabB V341W (protein)
chain: MKTLSPAVITLLWRQDAAEFYFSRLSHLPWAMLLHSGYADHPYSRFDIVVAEPICTLTTFGKETVVSESEKRTTTTDDPLQVLQQVLDRADIRPTHNEDLPFQGGALGLFGYDLGRRFESLPEIAEQDIVLPDMAVGIYDWALIVDHQRHTVSLLSHNDVNARRAWLESQQFSPQEDFTLTSDWQSNMTREQYGEKFRQVQEYLHSGDCYQVNLAQRFHATYSGDEWQAFLQLNQANRAPFSAFLRLEQGAILSLSPERFILCDNSEIQTRPIKGTLPRLPDPQEDSKQAVKLANSAKDRAENLMIVDLMRNDIGRVAVAGSVKVPELFVVEPFPAVHHLWSTITAQLPEQLHASDLLRAAFPGGSITGAPKVRAMEIIDELEPQRRNAWCGSIGYLSFCGNMDTSITIRTLTAINGQIFCSAGGGIVADSQEEAEYQETFDKVNRILKQLEK
fold change of barcode share [1]: 0.707 ± 0.13 | fold change of barcode share [2]: 0.0128 ± 0.0093

B2: pabB V341Q (protein)
chain: MKTLSPAVITLLWRQDAAEFYFSRLSHLPWAMLLHSGYADHPYSRFDIVVAEPICTLTTFGKETVVSESEKRTTTTDDPLQVLQQVLDRADIRPTHNEDLPFQGGALGLFGYDLGRRFESLPEIAEQDIVLPDMAVGIYDWALIVDHQRHTVSLLSHNDVNARRAWLESQQFSPQEDFTLTSDWQSNMTREQYGEKFRQVQEYLHSGDCYQVNLAQRFHATYSGDEWQAFLQLNQANRAPFSAFLRLEQGAILSLSPERFILCDNSEIQTRPIKGTLPRLPDPQEDSKQAVKLANSAKDRAENLMIVDLMRNDIGRVAVAGSVKVPELFVVEPFPAVHHLQSTITAQLPEQLHASDLLRAAFPGGSITGAPKVRAMEIIDELEPQRRNAWCGSIGYLSFCGNMDTSITIRTLTAINGQIFCSAGGGIVADSQEEAEYQETFDKVNRILKQLEK
fold change of barcode share [1]: 1.2 ± 0.65 | fold change of barcode share [2]: < 0.0112

B3: pabB V341D (protein)
chain: MKTLSPAVITLLWRQDAAEFYFSRLSHLPWAMLLHSGYADHPYSRFDIVVAEPICTLTTFGKETVVSESEKRTTTTDDPLQVLQQVLDRADIRPTHNEDLPFQGGALGLFGYDLGRRFESLPEIAEQDIVLPDMAVGIYDWALIVDHQRHTVSLLSHNDVNARRAWLESQQFSPQEDFTLTSDWQSNMTREQYGEKFRQVQEYLHSGDCYQVNLAQRFHATYSGDEWQAFLQLNQANRAPFSAFLRLEQGAILSLSPERFILCDNSEIQTRPIKGTLPRLPDPQEDSKQAVKLANSAKDRAENLMIVDLMRNDIGRVAVAGSVKVPELFVVEPFPAVHHLDSTITAQLPEQLHASDLLRAAFPGGSITGAPKVRAMEIIDELEPQRRNAWCGSIGYLSFCGNMDTSITIRTLTAINGQIFCSAGGGIVADSQEEAEYQETFDKVNRILKQLEK
fold change of barcode share [1]: 1.08 ± 0.49 | fold change of barcode share [2]: 0.0141 ± 0.0093

B4: pabB V341P (protein)
chain: MKTLSPAVITLLWRQDAAEFYFSRLSHLPWAMLLHSGYADHPYSRFDIVVAEPICTLTTFGKETVVSESEKRTTTTDDPLQVLQQVLDRADIRPTHNEDLPFQGGALGLFGYDLGRRFESLPEIAEQDIVLPDMAVGIYDWALIVDHQRHTVSLLSHNDVNARRAWLESQQFSPQEDFTLTSDWQSNMTREQYGEKFRQVQEYLHSGDCYQVNLAQRFHATYSGDEWQAFLQLNQANRAPFSAFLRLEQGAILSLSPERFILCDNSEIQTRPIKGTLPRLPDPQEDSKQAVKLANSAKDRAENLMIVDLMRNDIGRVAVAGSVKVPELFVVEPFPAVHHLPSTITAQLPEQLHASDLLRAAFPGGSITGAPKVRAMEIIDELEPQRRNAWCGSIGYLSFCGNMDTSITIRTLTAINGQIFCSAGGGIVADSQEEAEYQETFDKVNRILKQLEK
fold change of barcode share [1]: 1.11 ± 0.15

B5: pabB F420A (protein)
chain: MKTLSPAVITLLWRQDAAEFYFSRLSHLPWAMLLHSGYADHPYSRFDIVVAEPICTLTTFGKETVVSESEKRTTTTDDPLQVLQQVLDRADIRPTHNEDLPFQGGALGLFGYDLGRRFESLPEIAEQDIVLPDMAVGIYDWALIVDHQRHTVSLLSHNDVNARRAWLESQQFSPQEDFTLTSDWQSNMTREQYGEKFRQVQEYLHSGDCYQVNLAQRFHATYSGDEWQAFLQLNQANRAPFSAFLRLEQGAILSLSPERFILCDNSEIQTRPIKGTLPRLPDPQEDSKQAVKLANSAKDRAENLMIVDLMRNDIGRVAVAGSVKVPELFVVEPFPAVHHLVSTITAQLPEQLHASDLLRAAFPGGSITGAPKVRAMEIIDELEPQRRNAWCGSIGYLSFCGNMDTSITIRTLTAINGQIACSAGGGIVADSQEEAEYQETFDKVNRILKQLEK
fold change of barcode share [1]: 0.674 ± 0.12 | fold change of barcode share [2]: 0.00995 ± 0.0078

B6: pabB F420W (protein)
chain: MKTLSPAVITLLWRQDAAEFYFSRLSHLPWAMLLHSGYADHPYSRFDIVVAEPICTLTTFGKETVVSESEKRTTTTDDPLQVLQQVLDRADIRPTHNEDLPFQGGALGLFGYDLGRRFESLPEIAEQDIVLPDMAVGIYDWALIVDHQRHTVSLLSHNDVNARRAWLESQQFSPQEDFTLTSDWQSNMTREQYGEKFRQVQEYLHSGDCYQVNLAQRFHATYSGDEWQAFLQLNQANRAPFSAFLRLEQGAILSLSPERFILCDNSEIQTRPIKGTLPRLPDPQEDSKQAVKLANSAKDRAENLMIVDLMRNDIGRVAVAGSVKVPELFVVEPFPAVHHLVSTITAQLPEQLHASDLLRAAFPGGSITGAPKVRAMEIIDELEPQRRNAWCGSIGYLSFCGNMDTSITIRTLTAINGQIWCSAGGGIVADSQEEAEYQETFDKVNRILKQLEK
fold change of barcode share [1]: 0.938 ± 0.26 | fold change of barcode share [2]: 0.01264 ± 4.6e-05

B7: pabB F420Q (protein)
chain: MKTLSPAVITLLWRQDAAEFYFSRLSHLPWAMLLHSGYADHPYSRFDIVVAEPICTLTTFGKETVVSESEKRTTTTDDPLQVLQQVLDRADIRPTHNEDLPFQGGALGLFGYDLGRRFESLPEIAEQDIVLPDMAVGIYDWALIVDHQRHTVSLLSHNDVNARRAWLESQQFSPQEDFTLTSDWQSNMTREQYGEKFRQVQEYLHSGDCYQVNLAQRFHATYSGDEWQAFLQLNQANRAPFSAFLRLEQGAILSLSPERFILCDNSEIQTRPIKGTLPRLPDPQEDSKQAVKLANSAKDRAENLMIVDLMRNDIGRVAVAGSVKVPELFVVEPFPAVHHLVSTITAQLPEQLHASDLLRAAFPGGSITGAPKVRAMEIIDELEPQRRNAWCGSIGYLSFCGNMDTSITIRTLTAINGQIQCSAGGGIVADSQEEAEYQETFDKVNRILKQLEK
fold change of barcode share [1]: 0.846 ± 0.11 | fold change of barcode share [2]: 0.0227 ± 0.00057

B8: pabB F420D (protein)
chain: MKTLSPAVITLLWRQDAAEFYFSRLSHLPWAMLLHSGYADHPYSRFDIVVAEPICTLTTFGKETVVSESEKRTTTTDDPLQVLQQVLDRADIRPTHNEDLPFQGGALGLFGYDLGRRFESLPEIAEQDIVLPDMAVGIYDWALIVDHQRHTVSLLSHNDVNARRAWLESQQFSPQEDFTLTSDWQSNMTREQYGEKFRQVQEYLHSGDCYQVNLAQRFHATYSGDEWQAFLQLNQANRAPFSAFLRLEQGAILSLSPERFILCDNSEIQTRPIKGTLPRLPDPQEDSKQAVKLANSAKDRAENLMIVDLMRNDIGRVAVAGSVKVPELFVVEPFPAVHHLVSTITAQLPEQLHASDLLRAAFPGGSITGAPKVRAMEIIDELEPQRRNAWCGSIGYLSFCGNMDTSITIRTLTAINGQIDCSAGGGIVADSQEEAEYQETFDKVNRILKQLEK
fold change of barcode share [1]: 0.594 ± 0.017 | fold change of barcode share [2]: 0.0106 ± 0.0044

B9: pabB F420P (protein)
chain: MKTLSPAVITLLWRQDAAEFYFSRLSHLPWAMLLHSGYADHPYSRFDIVVAEPICTLTTFGKETVVSESEKRTTTTDDPLQVLQQVLDRADIRPTHNEDLPFQGGALGLFGYDLGRRFESLPEIAEQDIVLPDMAVGIYDWALIVDHQRHTVSLLSHNDVNARRAWLESQQFSPQEDFTLTSDWQSNMTREQYGEKFRQVQEYLHSGDCYQVNLAQRFHATYSGDEWQAFLQLNQANRAPFSAFLRLEQGAILSLSPERFILCDNSEIQTRPIKGTLPRLPDPQEDSKQAVKLANSAKDRAENLMIVDLMRNDIGRVAVAGSVKVPELFVVEPFPAVHHLVSTITAQLPEQLHASDLLRAAFPGGSITGAPKVRAMEIIDELEPQRRNAWCGSIGYLSFCGNMDTSITIRTLTAINGQIPCSAGGGIVADSQEEAEYQETFDKVNRILKQLEK
fold change of barcode share [1]: 1.55 ± 0.13

B10: pabB L131A (protein)
chain: MKTLSPAVITLLWRQDAAEFYFSRLSHLPWAMLLHSGYADHPYSRFDIVVAEPICTLTTFGKETVVSESEKRTTTTDDPLQVLQQVLDRADIRPTHNEDLPFQGGALGLFGYDLGRRFESLPEIAEQDIVAPDMAVGIYDWALIVDHQRHTVSLLSHNDVNARRAWLESQQFSPQEDFTLTSDWQSNMTREQYGEKFRQVQEYLHSGDCYQVNLAQRFHATYSGDEWQAFLQLNQANRAPFSAFLRLEQGAILSLSPERFILCDNSEIQTRPIKGTLPRLPDPQEDSKQAVKLANSAKDRAENLMIVDLMRNDIGRVAVAGSVKVPELFVVEPFPAVHHLVSTITAQLPEQLHASDLLRAAFPGGSITGAPKVRAMEIIDELEPQRRNAWCGSIGYLSFCGNMDTSITIRTLTAINGQIFCSAGGGIVADSQEEAEYQETFDKVNRILKQLEK
fold change of barcode share [1]: 0.393 ± 0.11 | fold change of barcode share [2]: < 0.0146

B11: pabB L131W (protein)
chain: MKTLSPAVITLLWRQDAAEFYFSRLSHLPWAMLLHSGYADHPYSRFDIVVAEPICTLTTFGKETVVSESEKRTTTTDDPLQVLQQVLDRADIRPTHNEDLPFQGGALGLFGYDLGRRFESLPEIAEQDIVWPDMAVGIYDWALIVDHQRHTVSLLSHNDVNARRAWLESQQFSPQEDFTLTSDWQSNMTREQYGEKFRQVQEYLHSGDCYQVNLAQRFHATYSGDEWQAFLQLNQANRAPFSAFLRLEQGAILSLSPERFILCDNSEIQTRPIKGTLPRLPDPQEDSKQAVKLANSAKDRAENLMIVDLMRNDIGRVAVAGSVKVPELFVVEPFPAVHHLVSTITAQLPEQLHASDLLRAAFPGGSITGAPKVRAMEIIDELEPQRRNAWCGSIGYLSFCGNMDTSITIRTLTAINGQIFCSAGGGIVADSQEEAEYQETFDKVNRILKQLEK
fold change of barcode share [1]: 1.45 ± 1.7
